Reference: PMC4624786
Substitutions are numbered along the chain they refer to. Results are given in words; binding and its absence hold for the method and conditions named. In cells and extracts the contact can be indirect. Some results given as binding are weak or reduced against the parent protein; the word gives no strength. For some assays here: Tags and fused reporters may be left off the sequences shown.

Sequences of proteins named here, by UniProt entry; tags and fusion partners are left off. A change or cut given only in a name is not applied to a line headed by its entry. Residues count along the entry.
UniProt O70161: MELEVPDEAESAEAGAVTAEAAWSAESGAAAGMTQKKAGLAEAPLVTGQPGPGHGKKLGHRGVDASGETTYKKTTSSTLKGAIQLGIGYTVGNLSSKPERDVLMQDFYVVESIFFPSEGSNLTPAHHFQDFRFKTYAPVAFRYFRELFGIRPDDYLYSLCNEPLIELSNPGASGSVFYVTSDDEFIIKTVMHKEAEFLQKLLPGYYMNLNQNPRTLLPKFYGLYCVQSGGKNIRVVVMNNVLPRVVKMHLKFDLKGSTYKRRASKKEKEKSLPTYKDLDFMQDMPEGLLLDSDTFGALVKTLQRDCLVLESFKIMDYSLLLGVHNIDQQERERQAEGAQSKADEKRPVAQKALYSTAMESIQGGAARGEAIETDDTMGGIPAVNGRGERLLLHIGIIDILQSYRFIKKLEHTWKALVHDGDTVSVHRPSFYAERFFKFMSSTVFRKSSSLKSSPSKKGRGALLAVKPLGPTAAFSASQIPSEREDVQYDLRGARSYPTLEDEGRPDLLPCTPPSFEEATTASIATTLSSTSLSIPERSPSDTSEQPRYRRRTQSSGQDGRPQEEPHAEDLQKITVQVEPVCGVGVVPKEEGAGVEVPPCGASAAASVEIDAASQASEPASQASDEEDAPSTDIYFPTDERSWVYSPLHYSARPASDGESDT
UniProt P70182: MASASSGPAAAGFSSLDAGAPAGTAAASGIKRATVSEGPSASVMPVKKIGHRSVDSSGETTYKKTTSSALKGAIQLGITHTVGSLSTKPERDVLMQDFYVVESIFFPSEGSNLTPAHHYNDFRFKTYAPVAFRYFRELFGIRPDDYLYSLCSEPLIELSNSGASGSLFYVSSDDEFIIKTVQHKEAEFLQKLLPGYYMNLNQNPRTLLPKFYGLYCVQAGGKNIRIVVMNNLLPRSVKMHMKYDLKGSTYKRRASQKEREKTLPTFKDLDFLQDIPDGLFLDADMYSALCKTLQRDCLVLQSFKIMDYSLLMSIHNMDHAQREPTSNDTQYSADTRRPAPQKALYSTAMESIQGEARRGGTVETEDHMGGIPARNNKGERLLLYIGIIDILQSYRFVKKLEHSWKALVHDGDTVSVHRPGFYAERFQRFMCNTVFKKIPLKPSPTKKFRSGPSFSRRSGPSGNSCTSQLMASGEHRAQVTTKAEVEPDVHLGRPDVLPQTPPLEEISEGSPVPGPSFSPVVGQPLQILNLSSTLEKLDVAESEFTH
myc-PIPKIα-(1–507): residues 1-507 of P70182
UniProt P70181: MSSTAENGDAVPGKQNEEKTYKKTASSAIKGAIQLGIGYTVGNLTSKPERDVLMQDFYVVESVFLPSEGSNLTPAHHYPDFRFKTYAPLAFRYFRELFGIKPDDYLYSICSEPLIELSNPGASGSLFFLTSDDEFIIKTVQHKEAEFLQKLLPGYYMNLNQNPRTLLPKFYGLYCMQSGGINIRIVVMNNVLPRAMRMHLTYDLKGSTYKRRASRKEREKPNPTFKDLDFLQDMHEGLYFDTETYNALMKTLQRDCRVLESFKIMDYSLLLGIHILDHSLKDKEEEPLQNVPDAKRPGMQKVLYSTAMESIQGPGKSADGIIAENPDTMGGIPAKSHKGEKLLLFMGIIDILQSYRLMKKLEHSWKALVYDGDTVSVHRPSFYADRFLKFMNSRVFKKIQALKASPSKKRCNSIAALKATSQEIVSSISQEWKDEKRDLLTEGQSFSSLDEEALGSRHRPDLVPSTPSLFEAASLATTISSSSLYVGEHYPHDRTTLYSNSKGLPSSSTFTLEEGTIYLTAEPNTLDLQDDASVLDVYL
UniProt P11881, residues 224-604: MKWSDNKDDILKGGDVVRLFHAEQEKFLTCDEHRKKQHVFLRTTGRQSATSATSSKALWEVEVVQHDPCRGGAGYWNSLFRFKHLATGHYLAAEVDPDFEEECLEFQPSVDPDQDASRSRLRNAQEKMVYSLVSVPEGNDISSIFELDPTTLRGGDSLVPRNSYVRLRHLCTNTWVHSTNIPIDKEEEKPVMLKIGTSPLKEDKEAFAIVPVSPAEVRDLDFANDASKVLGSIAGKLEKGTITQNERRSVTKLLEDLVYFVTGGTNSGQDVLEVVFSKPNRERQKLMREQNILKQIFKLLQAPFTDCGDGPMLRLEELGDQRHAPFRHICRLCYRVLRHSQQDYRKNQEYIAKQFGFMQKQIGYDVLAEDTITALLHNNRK
UniProt Q80SW1: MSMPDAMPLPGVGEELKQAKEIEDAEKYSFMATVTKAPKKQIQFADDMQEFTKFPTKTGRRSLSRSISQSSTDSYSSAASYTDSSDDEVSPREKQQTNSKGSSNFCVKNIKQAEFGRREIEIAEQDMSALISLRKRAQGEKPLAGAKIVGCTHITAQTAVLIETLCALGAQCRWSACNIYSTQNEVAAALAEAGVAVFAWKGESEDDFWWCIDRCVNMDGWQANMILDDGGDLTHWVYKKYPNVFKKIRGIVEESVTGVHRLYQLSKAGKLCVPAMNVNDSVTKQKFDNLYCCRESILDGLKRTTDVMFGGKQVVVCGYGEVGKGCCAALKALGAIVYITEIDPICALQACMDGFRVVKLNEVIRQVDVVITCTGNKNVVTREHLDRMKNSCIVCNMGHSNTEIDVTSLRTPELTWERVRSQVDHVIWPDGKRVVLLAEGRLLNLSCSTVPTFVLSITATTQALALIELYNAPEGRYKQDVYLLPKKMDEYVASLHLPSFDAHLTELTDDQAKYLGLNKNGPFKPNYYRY

How the values were obtained:
[1] = molecular target: T1, myc-tagged phosphatidylinositol phosphate kinase type IIα (rat) (UniProt Q9R0I8); assay: co-IP; as the COS-7 co-IP, but lysis buffer with 1 mM MgCl2 and 1 mM EGTA instead of 2 mM EDTA (S1 Fig A)
T1 sequence: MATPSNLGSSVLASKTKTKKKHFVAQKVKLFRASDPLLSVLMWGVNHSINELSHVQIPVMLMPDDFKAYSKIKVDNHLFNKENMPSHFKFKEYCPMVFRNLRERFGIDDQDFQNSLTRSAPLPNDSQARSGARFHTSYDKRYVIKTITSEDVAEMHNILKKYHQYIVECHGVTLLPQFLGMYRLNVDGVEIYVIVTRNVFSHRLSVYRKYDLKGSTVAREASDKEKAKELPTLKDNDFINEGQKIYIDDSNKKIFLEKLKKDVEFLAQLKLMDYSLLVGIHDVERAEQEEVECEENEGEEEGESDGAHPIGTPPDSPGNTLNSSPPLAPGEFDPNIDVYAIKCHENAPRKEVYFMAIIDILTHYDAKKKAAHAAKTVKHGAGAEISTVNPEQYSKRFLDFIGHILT

[2] = molecular target: myc-tagged phosphatidylinositol phosphate kinase type Iγ (mouse) (UniProt O70161); assay: as above
[3] = molecular target: myc-tagged phosphatidylinositol phosphate kinase type Iα (mouse) (UniProt P70182); assay: as above
[4] = molecular target: myc-tagged phosphatidylinositol phosphate kinase type Iβ (mouse) (UniProt P70181); assay: as above
[5] = molecular target: T2, N-terminal cytoplasmic domain of NBCe1-B (residues 1–468) fused to maltose-binding protein (UniProt Q9Y6R1); assay: pull-down; COS-7 cell lysates (myc-PIPKIα or myc-PIPKIIα with or without HA-IRBIT) incubated with 5 μg MBP fusion protein for 1 hr at 4°C, amylose resin, washed with lysis buffer, eluted with 100 mM maltose; Western blot; only the target purified
T2 sequence: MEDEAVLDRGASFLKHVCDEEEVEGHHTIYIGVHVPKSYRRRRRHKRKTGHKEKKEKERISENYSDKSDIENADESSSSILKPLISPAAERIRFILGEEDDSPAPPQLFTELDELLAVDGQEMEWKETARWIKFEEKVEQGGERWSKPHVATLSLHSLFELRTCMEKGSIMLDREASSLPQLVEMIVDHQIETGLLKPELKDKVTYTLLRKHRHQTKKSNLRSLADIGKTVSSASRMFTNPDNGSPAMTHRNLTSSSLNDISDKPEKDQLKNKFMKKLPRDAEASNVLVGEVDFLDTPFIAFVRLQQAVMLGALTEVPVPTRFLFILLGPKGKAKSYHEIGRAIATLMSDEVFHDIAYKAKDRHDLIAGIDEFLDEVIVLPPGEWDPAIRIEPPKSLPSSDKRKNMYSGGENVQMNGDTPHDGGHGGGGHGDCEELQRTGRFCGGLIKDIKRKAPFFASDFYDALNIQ

[6] = molecular target: T1, myc-tagged phosphatidylinositol phosphate kinase type IIα (rat); assay: co-IP; COS-7 cells co-transfected with HA-IRBIT and myc-PIPK constructs; lysis buffer 10 mM Hepes pH 7.4, 100 mM NaCl, 2 mM EDTA, 1% Nonidet P-40; precipitated with anti-HA or anti-myc antibody and protein G-Sepharose at 4°C; Western blot
[7] = molecular target: T3, myc-PIPKIIα D359A (rat) (UniProt Q9R0I8); assay: as above
T3 sequence: T1 sequence with D359A

[8] = molecular target: myc-PIPKIα-(1–507) (mouse) (UniProt P70182); assay: as above
[9] = molecular target: GST-PIPKIα D307A (mouse) (UniProt P70182); assay: pull-down; COS-7 cell lysates incubated with 10 μg GST fusion protein for 1 hr at 4°C, glutathione-Sepharose 4B, washed with lysis buffer (2 mM EDTA, 1% Nonidet P-40), eluted with 20 mM glutathione; Western blot; only the target purified
[10] = molecular target: GST-PIPKIα D389A (mouse) (UniProt P70182); assay: as above
[11] = molecular target: IP3 binding domain of IP3R1 (residues 224–604) fused to GST (UniProt P11881); assay: as above

Measured: binding

Hemagglutinin (HA)-tagged IRBIT (IP3R-binding protein released with inositol 1,4,5-trisphosphate) (from UniProt Q80SW1 1-530)
binds: all assays above
